Data: PubChem BioAssay AID504339 (National Center for Advancing Translational Sciences (NCATS), 2011)
Screen size: about 390,000 compounds; about 17,000 (4.4%) were called active. The shares of active, inactive and inconclusive entries below differ from those in the screen. Calls come from the whole dose curve; as a rule, active = well fitted inhibition curve with a large enough effect; inconclusive = small, poorly fitted or top-dose-only effect; inactive = no such curve, though single readings can be large or run the other way. A potency beside an inconclusive call is a rough fit, not a confirmed value.

Biological target: Lysine-specific demethylase 4A (Homo sapiens) (UniProt O75164)
UniProt O75164, sequence (O75164 whole entry, looked up, the tested form may be a part): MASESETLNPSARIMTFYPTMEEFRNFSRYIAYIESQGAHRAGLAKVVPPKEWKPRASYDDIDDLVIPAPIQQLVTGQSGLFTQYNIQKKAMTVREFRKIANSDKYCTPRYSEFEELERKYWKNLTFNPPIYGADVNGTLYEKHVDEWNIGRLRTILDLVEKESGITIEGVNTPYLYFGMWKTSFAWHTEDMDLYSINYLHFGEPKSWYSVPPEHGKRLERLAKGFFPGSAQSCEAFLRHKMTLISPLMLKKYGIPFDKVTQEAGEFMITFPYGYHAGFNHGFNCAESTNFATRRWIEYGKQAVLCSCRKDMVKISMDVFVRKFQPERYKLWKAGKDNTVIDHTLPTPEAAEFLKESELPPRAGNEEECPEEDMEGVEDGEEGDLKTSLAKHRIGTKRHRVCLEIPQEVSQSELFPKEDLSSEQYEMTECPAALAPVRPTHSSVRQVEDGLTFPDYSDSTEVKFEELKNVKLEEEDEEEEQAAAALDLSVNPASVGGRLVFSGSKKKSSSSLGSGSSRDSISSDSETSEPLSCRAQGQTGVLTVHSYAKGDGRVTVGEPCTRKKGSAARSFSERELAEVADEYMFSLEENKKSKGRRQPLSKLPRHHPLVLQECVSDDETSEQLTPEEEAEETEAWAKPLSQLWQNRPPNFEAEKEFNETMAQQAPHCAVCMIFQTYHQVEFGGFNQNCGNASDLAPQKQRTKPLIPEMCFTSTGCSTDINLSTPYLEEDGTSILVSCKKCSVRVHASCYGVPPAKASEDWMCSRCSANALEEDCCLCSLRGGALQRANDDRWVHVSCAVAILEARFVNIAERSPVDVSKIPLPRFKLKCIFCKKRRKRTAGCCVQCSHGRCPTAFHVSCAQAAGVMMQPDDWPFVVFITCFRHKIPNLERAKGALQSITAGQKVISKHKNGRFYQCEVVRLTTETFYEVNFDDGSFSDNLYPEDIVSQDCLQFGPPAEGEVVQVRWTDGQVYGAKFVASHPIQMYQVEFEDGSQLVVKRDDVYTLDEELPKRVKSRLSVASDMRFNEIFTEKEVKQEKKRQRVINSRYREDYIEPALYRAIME
Assay: qHTS Assay for Inhibitors of JMJD2A-Tudor Domain; note: nearly all actives have a fitted effect of over 50% in size
Settings: AlphaScreen JMJD2A-Tudor / H3K4me3 peptide binding; series mostly up to 114 µM
Potency is the fitted concentration of half-maximal effect; tags give direction and shape of the fitted curve.

Potency, active:
COc1ccccc1-n1ccnc(SCC(=O)NC2CCCCC2)c1=O 35.5 µM
CC(=NNC(=S)Nc1ccc(C)cc1)c1ccccn1 79.4 µM
CC(C)(C)OC(=O)NS(=O)(=O)Nc1ccccc1Br 35.5 µM
O=C(NCc1n[nH]c(=S)n1-c1cccc(C(F)(F)F)c1)c1ccco1 12.6 µM
CCc1cccc(C)c1NC(=S)NCCc1c(C)[nH]c2ccc(C)cc12 44.7 µM
O=C(O)c1ccccc1CC(CCc1ccccc1)C(=O)O (stereo unspecified) 10 µM
CCOP(=O)(OCC)C(C#N)=C1SCN(c2ccc(Cl)cc2)CS1 79.4 µM
Oc1ccc(Nc2ccccc2F)c2cccnc12 22.4 µM
Cc1cccc(N=Nc2c(C)[nH]n(-c3ccccc3)c2=O)c1 11.2 µM
COc1cc2[nH]c(=S)n(NC(=O)c3ccccc3)c(=O)c2cc1OC 89.1 µM
CCOC(=O)c1c(C)[nH]c(N=Nc2ccccc2Cl)c1C 15.8 µM
O=C(Cn1c(-c2ccccc2)noc1=O)Nc1ccc(N2CCCCCC2)cc1 22.4 µM
Cc1cc2c(cc1C)NC1(C[C@H]3CCC(=O)N4CC[C@@H](C1)[C@@H]34)C(=NC(C)(C)CC(C)(C)C)N2 (stereo partly specified) 15.8 µM
O=C(O)c1cccc(NC2=C(Cl)C(=O)c3ccccc3C2=O)c1 56.2 µM
Fc1ccc(-c2csc(=S)[nH]2)cc1 22.4 µM
O=C(O)Cc1ccc(C(=O)CSc2ccccc2)s1 56.2 µM

Potency, inactive:
O=C(CCN=C1NS(=O)(=O)c2ccccc21)OCc1ccccc1
Cc1ccc2oc3nc(C)c(C(=O)Nc4cccc(C(F)(F)F)c4)cc3c(=O)c2c1
Cc1ccc2c(c1)c1c(c(=O)n(-c3cccc(Cl)c3)c(=O)n1CC(N)=O)n2C
Cc1cccc(C(=O)n2nc(-c3cccnc3)nc2NCc2ccccc2)c1
N#Cc1c(N)sc2c1CCN(CCc1ccccc1)C2
CC1CN(S(=O)(=O)c2cccc(C(=O)NCCc3ccc(S(N)(=O)=O)cc3)c2)CC(C)O1 (stereo unspecified)
CCOc1ccccc1NC(=O)C1CCN(S(=O)(=O)c2ccc3c(c2)CCCN3C(C)=O)CC1
COc1ccc(-n2c(SCC(=O)c3ccccc3)nc3c([nH]c4ccccc43)c2=O)cc1
CCS(=O)(=O)c1ncc(Cl)c(C(=O)Nc2ccccc2)n1
O=[N+]([O-])c1nn(-c2ccc3c(c2)OCCO3)n(O)c1=NC1CCCC1
O=C(C1=C(O)C(=O)N(CCN2CCOCC2)C1c1ccc(Cl)cc1)c1cc2ccccc2o1 (stereo unspecified)
CC(/C=C\c1ccccc1)=C/C(=O)O
CCOC(=O)CC(NC(=O)CCc1c(C)nc2c(c1C)c(=O)n(C)c(=O)n2C)c1ccc(OCC)c(OC)c1 (stereo unspecified)
COCCn1c(SC(C)C(=O)Nc2ccc(Cl)cn2)nnc1-c1ccncc1 (stereo unspecified)
CC(C)C[C@@H](CO)N1CCN(CC(C)C)CCC1=O
COc1ccc(NC(=O)CN(C)C(=O)CSCc2c(C)noc2C)cc1

Potency, inconclusive:
Cc1coc(=N)n1CC(=O)c1ccc(Cl)cc1 56.2 µM [inhibitor, partial curve]
S=C(NCCCN(Cc1ccc(Cl)cc1)c1ccc(-c2ccccc2)cn1)NCCCN(Cc1ccc(Cl)cc1)c1ccc(-c2ccccc2)cn1 79.4 µM [inhibitor, partial curve]
CN1C=CC=C/C1=C1\SC(=S)N(Cc2ccccc2)C1=O 50.1 µM [inhibitor, partial curve]
Cn1c(=NC(=O)c2ccc(S(=O)(=O)N3CCCc4ccccc43)cc2)sc2cc(S(C)(=O)=O)ccc21 39.8 µM [inhibitor, partial curve]
COc1ccc(OC)c(C(=O)NC(CC(N)=O)c2ccc(NCc3ccc(F)c(F)c3)c([N+](=O)[O-])c2)c1 (stereo unspecified) 79.4 µM [inhibitor, partial curve]
Oc1c(C(c2ccc(Cl)cc2Cl)N2CCN(Cc3ccccc3)CC2)sc2nc(-c3ccco3)nn12 (stereo unspecified) 39.8 µM [inhibitor, full curve]
CCOC(=O)/C(=N\Nc1ccccc1)c1csc(Nc2ccc(C)cc2)n1 35.5 µM [inhibitor, partial curve]
COc1cc(/C=C2/C(=N)N3C(c4ccccc4)=CSC3=NC2=O)ccc1OCC(=O)O 70.8 µM [inhibitor, single point]
COc1ccc(C2C(C#N)=C(N)Oc3cc4c(cc32)OCO4)cc1 (stereo unspecified) 50.1 µM [inhibitor, partial curve]
C=CCn1c(SCc2cc(=O)n3ccsc3n2)nc2cc(Cl)ccc2c1=O 28.2 µM [inhibitor, single point]
COc1ccc(NS(=O)(=O)c2cc(NC(=O)c3cccnc3Cl)ccc2N2CCCC2)cc1 89.1 µM [inhibitor, partial curve]
N#CC1=C(S)N=C(N)C(c2nc(-c3ccccc3)cs2)C12CCCC2 (stereo unspecified) 3.16 µM [inhibitor, full curve, poor fit]
CC(=O)c1cccc(NS(=O)(=O)c2cc(-c3cnc(C4CC4)o3)ccc2C)c1 56.2 µM [inhibitor, partial curve]
CC(=O)c1ccc(-n2c(-c3cc(-c4ccsc4)n[nH]3)n[nH]c2=S)cc1 44.7 µM [inhibitor, partial curve]
CCCCOc1ccc(C2=CSC3=NCCN23)cc1[N+](=O)[O-] 56.2 µM [inhibitor, partial curve]
Cc1cccc(N2CCN(C(c3ccc(N(C)C)cc3)c3nnnn3C(C)(C)C)CC2)c1C (stereo unspecified) 56.2 µM [inhibitor, partial curve, poor fit]
Cn1c(SCC(=O)Nc2nccs2)nnc1-c1ccccn1 44.7 µM [inhibitor, partial curve]
Cc1cccc(NC(=O)NCc2ccc3c(c2)cc(C)n3C)c1 39.8 µM [inhibitor, partial curve]
COc1ccc(NC(=O)COC(=O)c2ccc(OCc3ccccc3Cl)c(OC)c2)c(OC)c1 89.1 µM [inhibitor, single point]
CCCC(=O)Nc1nnc(-c2ccccc2)o1 50.1 µM [inhibitor, partial curve]
O=C(N/N=C/c1ccco1)c1ccccn1 89.1 µM [inhibitor, single point]
CCOc1cc(-c2ccc(OC(=O)c3ccc(OC)cc3)c(OC)c2)cc(=O)c2c(C)oc(C)c12 35.5 µM [inhibitor, full curve]
Nc1nnc(SC2CCCC2)s1 31.6 µM [inhibitor, single point]
O=C1CSC(c2ccccc2)N1c1cccnc1 (stereo unspecified) 89.1 µM [inhibitor, single point]
COc1ccc(C(=O)NC(=S)NC(C)(C)C)cc1Br 56.2 µM [inhibitor, partial curve]
Cn1c(=O)c(=O)n(C)c2cc(N3CCOCC3)c(NS(=O)(=O)c3ccc(Br)cc3)cc21 89.1 µM [inhibitor, single point]
O=C(Nc1ccc2c(c1)OC1(CCCC1)O2)C1CC1 44.7 µM [inhibitor, partial curve]
Cc1cnc(C(=O)Oc2ccc(-c3ccccc3)cc2)cn1 50.1 µM [inhibitor, partial curve]
O=C(CN1CCCC1)Nc1nc(-c2ccc3c(c2)CCN3C(=O)c2ccccc2F)cs1 112 µM [inhibitor, partial curve, poor fit]
O=C(C(NS(=O)(=O)c1cccs1)c1ccccc1)N1CCN(c2ccccc2)CC1 (stereo unspecified) 63.1 µM [inhibitor, partial curve, poor fit]
COc1ccccc1OCc1nc(C#N)c(NCc2ccc(C)cc2)o1 56.2 µM [inhibitor, partial curve]
COc1cccc(Oc2cnc(N)nc2-c2ccc(OC)cc2O)c1 25.1 µM [inhibitor, full curve]
CCOC(=O)C1CCN(Cc2cc(=O)oc3cc(C)c(Cl)cc23)CC1 31.6 µM [inhibitor, partial curve]
COc1ccc(CN=C(C#N)C2=C(O)c3ccccc3C2=O)cc1 89.1 µM [inhibitor, partial curve]
O=C(CNc1cc(S(=O)(=O)N2CCOCC2)ccc1NCC1CCCO1)Nc1cccc(F)c1 (stereo unspecified) 39.8 µM [inhibitor, partial curve, poor fit]
COC(=O)c1ccccc1NC(=O)c1cc2nc(C3CC3)cc(C(F)(F)F)n2n1 50.1 µM [inhibitor, partial curve]
C[C@H](NC(=O)c1ccccc1)C(=O)N1CCC2(CC1)NCCc1[nH]cnc12 100 µM [inhibitor, single point]
O=C(Nc1ccc(Br)cc1F)N1CC=C(c2c[nH]c3ccccc23)CC1 56.2 µM [inhibitor, partial curve]
C=CCn1c(O)c(N=Nc2ccccc2C)c2ccccc21 25.1 µM [inhibitor, full curve, poor fit]
